Results as given in PubChem BioAssay (NCATS).
The inconclusive results got no clear call from the source; some entries with a clear call stand among them for comparison. No potency is given beside an inconclusive call; the fits are too rough. Active and inactive are the calls of the source. Calls come from the whole dose curve; as a rule, active = well fitted cell-killing curve with a large enough effect; inconclusive = small, poorly fitted or top-dose-only effect; inactive = no such curve, though single readings can be large or run the other way.
% is set by controls: 0 for no effect and ±100 for the full control effect; potency is the fitted concentration of half-maximal effect; tags give direction and shape of the fitted curve.

Assay: qHTS of pediatric cancer cell lines to identify multiple opportunities for drug repurposing: Primary screen for Saos-2 cells (AID 1347097); note: nearly all actives have a fitted effect of over 40% in size
Details: Saos-2 viability, CellTiter-Glo ATP luminescence, 48 h; series mostly up to 46 µM; activity change, negative = cytotoxic: at the top concentration
Text: Drug repurposing or repositioning has been offered as a strategy for drug development in oncology programs. This approach has special potential for childhood cancers and other rare or orphan diseases, where the expected return on new drug development has been a disincentive to pharmaceuticals. […] In this project we exploit the poly-pharmacology of drugs to discover new indications via phenotypic screening of a panel of 19 well-characterized cell lines derived from solid tumors seen in children and adolescents. The goal is to identify approved drugs with previously unrecognized anticancer properties that has the potential to reveal new mechanisms and biological processes involved in carcinogenesis or drug resistance. We employed a titration-based paradigm (quantitative high-throughput screening or qHTS), where all compounds were tested at multiple concentrations for their effect on cell viability. Concentration-response curves (CRCs) were derived directly from the primary screen, and both potency and efficacy values were used to identify compounds with robust bioactivity profiles. We screened the NIH Chemical Genomics Center (NCGC) Pharmaceutical Collection (NPC) and Mechanism Interrogation Plate (MIPE) small molecule collections of approved and investigational compounds against these cell lines; and measured metabolically active cells after 48 hours of compound treatment as a proxy for cell viability. […] Assay Submitter: Nathalia J. Martinez, National Center for Advancing Translational Sciences, National Institutes of Health, Rockville, MD, USA; email: natalia.martinez@nih.gov Shen, M et al. Quantitative high-throughput phenotypic screening of pediatric cancer cell lines identifies multiple opportunities for drug repurposing. Oncotarget 2017 Dec 19;9(4):4758-4772. PMID 29435139.
The cells were obtained from University of North Carolina (UNC), Pediatric Preclinical Testing Program (PPT), and Coriell Institute (CI). qHTS cell viability assay: Cells were assayed in growth media at a density of 500-1,000 cells/well. Five microliters of cells were dispensed into 1,536-well, white, solid-bottom, TC-treated plates (Greiner Bio One) using a multidrop dispenser and incubated at 37 degrees C, 5% CO2, under a humidified atmosphere for 5 hours. Twenty-three nanoliters of compounds and controls (neutral control DMSO or positive control bortezomib at final concentration of 2.3 µM) were subsequently transferred by Kalypsys pintool. For primary screens, the MIPE collection was tested at 11-point dilutions (final concentrations range from 0.78 nM to 46 µM) and the NPC collection at 8-point dilutions (final concentrations range from 0.59 nM to 46 µM). Compounds tested in follow-up screens were assayed at 11-point dilutions. Cells were incubated for 48 hours, followed by addition of 3 µL of CellTiter-Glo (Promega). After a 15 min incubation at room temperature, samples were analyzed for luminescence intensity using a ViewLux High-throughput CCD imager equipped with clear filters.
In the case of `COC(=O)C1=C(C)NC(C)=C(C(=O)OCCN(C)Cc2ccccc2)C1c1cccc([N+](=O)[O-])c1` (stereo not given), the Potency is reported as active: 29.9 µM. In the case of `O=C(O)Cc1cccc2ccccc12`, the Potency is reported as inconclusive [cytotoxic, partial curve, poor fit]. In the case of `Cc1cc(Nc2ncnc3ccc(-c4ccc(CNCCS(C)(=O)=O)o4)cc23)ccc1Oc1ccn2ncnc2c1`, the Potency is reported as active: 2.09 µM. With `CO[C@@H]1[C@@H](OC(N)=O)[C@@H](O)[C@H](Oc2ccc3c(O)c(NC(=O)c4ccc(O)c(CC=C(C)C)c4)c(=O)oc3c2C)OC1(C)C` the Potency was inconclusive [cytotoxic, partial curve]. In the case of `Cc1coc2c1C(=O)C(=O)c1c-2ccc2c(C)cccc12`, the Potency is reported as inconclusive [cytotoxic, full curve]. For `O=C1c2c(O)cccc2[C@@H]([C@@H]2O[C@H](CO)[C@@H](O)[C@H](O)[C@H]2O)c2cc(CO)cc(O)c21`, the “activity change, negative = cytotoxic” value was inactive: 15.8%. In the case of `CC(C)=CCOc1ccc(/C=C/C(=O)c2ccc(OCC=C(C)C)cc2OCC(=O)O)cc1`, the Potency is reported as inconclusive [cytotoxic, partial curve]. In the case of `CC(C)=CCC/C(C)=C/CC/C(C)=C/C(=O)OCC(=O)[C@@]1(O)CC[C@H]2[C@@H]3CCC4=CC(=O)C=C[C@]4(C)[C@H]3[C@@H](O)C[C@@]21C`, the Potency is reported as inconclusive [cytotoxic, partial curve]. With `O=C(O)CCCC[C@@H]1SC[C@@H]2NC(=O)N[C@@H]21` the Potency was inconclusive [cytotoxic, partial curve]. For `CN(C/C=C/C#CC(C)(C)C)Cc1cccc2ccccc12`, the Potency was inconclusive [cytotoxic, single point]. For `CNCCc1ccccn1`, the Potency was inconclusive [cytotoxic, partial curve]. With `COc1ccc2cc1Oc1cc3c(cc1OC)CC[N+](C)(C)[C@H]3Cc1ccc(cc1)Oc1c(OC)c(OC)cc3c1[C@@H](C2)[N+](C)(C)CC3` the “activity change, negative = cytotoxic” value was inactive: 24.4%. For `c1ccc(-c2nc[nH]c2-c2ccccc2)cc1`, the Potency was inconclusive [cytotoxic, partial curve]. With `CC(=O)Oc1ccc(C2(c3ccc(OC(C)=O)cc3)Oc3ccccc3NC2=O)cc1` the Potency was active: 11.9 µM. In the case of `CCCCOC(=O)c1ccc(O)cc1`, the Potency is reported as inconclusive [cytotoxic, partial curve]. With `C[C@H](NCc1ccc(OCc2cccc(F)c2)cc1)C(N)=O` the Potency was active: 16.6 µM. With `Cc1cc(Nc2ncc3c(n2)N(C)C(=O)N(c2cc(NC(=O)c4cccc(C(F)(F)F)c4)ccc2C)C3)n(C)n1` the Potency was active: 0.372 µM. With `CCc1oc2ccccc2c1C(=O)c1cc(I)c(O)c(I)c1` the Potency was inconclusive [cytotoxic, single point]. With `Cc1nc2n(c(=O)c1CCN1CCC(C(=O)c3ccc(F)cc3)CC1)CCS2` the “activity change, negative = cytotoxic” value was inactive: 10.8%. With `CC(C)(C)C(=O)C(Oc1ccc(Cl)cc1)n1ccnc1` (stereo not given) the “activity change, negative = cytotoxic” value was inactive: -19.2%. For `NC(=O)C1(N2CCCCC2)CCN(CCCC(=O)c2ccc(F)cc2)CC1`, the “activity change, negative = cytotoxic” value was inactive: -14.2%. In the case of `COc1cc(C[C@@H](CO)[C@H](CO)Cc2ccc(O)c(OC)c2)ccc1O`, the Potency is reported as active: 5.9 µM. For `CCOC(=O)c1ccc(N)cc1`, the Potency was inconclusive [cytotoxic, partial curve, poor fit]. In the case of `C=CC(=O)Nc1cccc(Oc2nc(Nc3ccc(N4CCN(C)CC4)cc3)ncc2Cl)c1`, the Potency is reported as inconclusive [cytotoxic, partial curve, poor fit]. With `CN(C)CCC=C1c2ccccc2CCc2ccccc21` the Potency was inconclusive [cytotoxic, single point]. With `O=C1NCCc2[nH]c(-c3ccncc3)cc21` the Potency was active: 4.18 µM. In the case of `Cc1ccc(CN2CCNCC2)cc1NC(=O)CNc1ccc(F)c(F)c1`, the Potency is reported as inconclusive [cytotoxic, partial curve]. In the case of `O=C1C(O)=C(O)C(=O)C(O)=C1O`, the “activity change, negative = cytotoxic” value is reported as inactive: 18.5%. With `CO/N=C(\C(=O)N[C@@H]1C(=O)N2C(C(=O)O)=C(CSc3nc(=O)c(O)nn3C)CS[C@H]12)c1csc(N)n1` the “activity change, negative = cytotoxic” value was inactive: 31%. In the case of `NS(=O)(=O)c1cc(-c2nn[nH]n2)c(NCc2cccs2)cc1Cl`, the “activity change, negative = cytotoxic” value is reported as inactive: 4.97%. In the case of `CNC(=O)c1nn(C)c2c1C(C)(C)Cc1cnc(Nc3ccc(N4CCN(C)CC4)cc3)nc1-2`, the Potency is reported as active: 2.35 µM. For `Nc1ccc(S(=O)(=O)Nc2cnc3ccccc3n2)cc1`, the “activity change, negative = cytotoxic” value was inactive: 20.7%. For `CC1(C)[C@@H](OC(=O)CCC(=O)O)CC[C@]2(C)[C@H]3C(=O)C=C4[C@@H]5C[C@@](C)(C(=O)O)CC[C@]5(C)CC[C@@]4(C)[C@]3(C)CC[C@@H]12`, the “activity change, negative = cytotoxic” value was inactive: 36%. In the case of `O=C(NCCN1CCOCC1)c1ccc(Cl)cc1`, the “activity change, negative = cytotoxic” value is reported as inactive: -0.0008%. With `CN[C@H]1[C@@H](O)[C@@H]2O[C@@H]3O[C@H](C)CC(=O)[C@]3(O)O[C@@H]2[C@@H](NC)[C@H]1O` the Potency was active: 1.87 µM. In the case of `Clc1ccc(C(c2ccc(Cl)cc2)n2cc[n+](CC(OCc3ccc(Cl)cc3Cl)c3ccc(Cl)cc3Cl)c2)cc1` (stereo not given), the Potency is reported as active: 11.8 µM. For `O=c1[nH]c(=O)n([C@H]2CCCO2)cc1F`, the “activity change, negative = cytotoxic” value was inactive: -3.04%. With `NC(N)=NCCC[C@H](N)C(=O)O` the Potency was inconclusive [cytotoxic, single point]. With `CC1CC(OC(=O)c2ccccc2O)CC(C)(C)C1` (stereo not given) the “activity change, negative = cytotoxic” value was inactive: 14%. With `NC(N)=N/N=C/c1c(Cl)cccc1Cl` the “activity change, negative = cytotoxic” value was inactive: 6.24%.
